Test results from the supplement of paper PMC3334620.
Over roughly 33,000 sequences, “E-score (-0.5 to 0.5)” has its median near -0.017; the highest 2% begin near 0.3. Some of the results follow.

molecular target: T1, Sut1 (UniProt P53032); test: PBM E-score (8-mer binding enrichment) (E-score (-0.5 to 0.5)); higher = stronger / more preferred TF binding; most listed sequences are background and not binding sites; conditions: protein concentration: 200 nM; construct: GST-full length
T1 sequence: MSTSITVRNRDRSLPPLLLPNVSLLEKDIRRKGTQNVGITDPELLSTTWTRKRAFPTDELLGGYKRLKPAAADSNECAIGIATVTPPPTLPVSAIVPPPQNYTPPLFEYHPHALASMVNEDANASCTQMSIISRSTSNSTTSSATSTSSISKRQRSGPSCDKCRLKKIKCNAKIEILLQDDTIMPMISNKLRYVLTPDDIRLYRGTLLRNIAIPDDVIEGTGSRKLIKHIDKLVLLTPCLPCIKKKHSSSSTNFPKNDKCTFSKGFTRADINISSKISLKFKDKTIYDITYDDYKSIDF
Method in brief: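 The E-score, a modified Wilcoxon-Mann-Whitney statistic, was computed by the Universal PBM Analysis Suite for every ungapped eight-base word pooled with its reverse complement. Scans behind it were normalised with masliner after bound GST-tagged yeast transcription factors were detected with fluorescent anti-GST. The proteins, at about 100-200 nM, had been applied to universal all-10-mer Agilent arrays made double-stranded by primer extension.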

| Sequence | PBM E-score |
| --- | --- |
| AGGAAGCG | -0.0473 |
| AGAAGGTG | -0.0206 |
| GGGGTAAA | 0.0285 |
| AGTAGGAG | -0.153 |
| AGAAAGCT | 0.126 |
| CTGGATGA | -0.113 |
| GGGACTGA | -0.185 |
| CCGCTAGA | -0.146 |
| ATACACTG | -0.0685 |
| GCTGGGAC | -0.235 |
| ACACTCGG | 0.00116 |
| GACATACC | -0.0943 |
| AATCTTTC | 0.158 |
| AATCCGTA | 0.00996 |
| GCACCCTA | -0.283 |
| AATCACTG | -0.0225 |
| GTATGAAC | 0.0827 |
| CACTGCTC | -0.193 |
| CGGTGCGC | -0.0148 |
| GGTTATAC | 0.132 |
| CACGTCTA | -0.115 |
| CGCGAGCG | -0.018 |
| ATGAGAAT | 0.122 |
| ATATACCC | 0.00468 |
| AGGTCTGG | -0.107 |

| Sequence | PBM E-score |
| --- | --- |
| AAGACACT | 0.0476 |
| AGTTCTTA | 0.265 |
| CGCACGAG | -0.192 |
| CTATACAG | 0.011 |
| CGTGCTGC | -0.239 |
| AATAGATG | 0.0604 |
| GTTAGTTA | 0.2 |
| ACACTCGA | -0.106 |
| GCCGAGCC | -0.0648 |
| CACTGTCC | -0.0421 |
| GTACTTTA | 0.0311 |
| CCCAGCCG | -0.222 |
| CTCTCCGC | 0.18 |
| CATTTGAA | 0.129 |
| AACTGATA | 0.141 |
| CTGCAACC | -0.219 |
| CCCTAGGC | -0.079 |
| GGACCTTA | 0.0194 |
| CGTACTAG | -0.084 |
| TAGTGAAA | 0.0592 |
| AGAGGCGG | -0.235 |
| CTACCCGA | -0.172 |
| ATGACCGA | -0.0778 |
| GGTACCAA | -0.168 |
| ATTTTCTA | 0.168 |

| Sequence | PBM E-score |
| --- | --- |
| AAAAGTTC | 0.155 |
| CGGGCACC | -0.0506 |
| AAACTCTG | 0.0958 |
| TATACCCA | -0.101 |
| ATGCGTAA | 0.104 |
| CCCTTGCG | -0.327 |
| AGTGTATC | 0.107 |
| CGCAAGTC | -0.0634 |
| AGGGTCGG | 0.00639 |
| CGGGTATA | -0.0045 |
| AGAGCACT | -0.0589 |
| CATAAGGG | 0.0764 |
| CCGCTGGC | -0.262 |
| GAAACACC | 0.043 |
| AGCCTATA | 0.0833 |
| GCCCACTA | -0.133 |
| AGTCCCCG | -0.0846 |
| AATTGATC | 0.0536 |
| AGTGAGAT | -0.0216 |
| GGTCTAAA | -0.034 |
| CTCCACCA | -0.186 |
| ACATACGG | -0.0182 |
| TAAGACCA | 0.0113 |
| CGAGCTGC | -0.0444 |
| ACTTTCTA | 0.167 |

| Sequence | PBM E-score |
| --- | --- |
| GAAACAAC | 0.107 |
| GGACCAGA | -0.155 |
| AGAACTGG | -0.126 |
| GGGGGCTA | -0.316 |
| AACGACCA | 0.113 |
| AATACTGA | 0.126 |
| AATGGCAT | 0.249 |
| ATGCTTCA | -0.0137 |
| GGAGGACA | -0.192 |
| TACAGGGA | -0.136 |
| AAGCGACC | 0.0829 |
| CGTCGGAC | 0.247 |
| ATCGTACC | -0.201 |
| AAGTCCAA | 0.203 |
| CAGCTTAC | -0.121 |
| GGTAGGCA | -0.163 |
| AATTTCCA | 0.283 |
| CACGCAAA | 0.0258 |
| GGGACTAA | -0.0778 |
| AAAGGTGC | -0.1 |
| AGCTGCTC | -0.101 |
| CGAGTTGA | 0.0421 |
| GCGCATCA | -0.013 |
| GCACGGAA | 0.0509 |
| AGGTAGAA | 0.0219 |

| Sequence | PBM E-score |
| --- | --- |
| AAAAGGGC | -0.0466 |
| AGTGATGA | -0.0599 |
| GTGAGTTA | -0.0473 |
| CGCGGGAA | 0.00645 |
| CCGCCGAA | 0.177 |
| ACCCAGGC | -0.0292 |
| GGAGATCA | 0.071 |
| CAACTGAA | 0.00253 |
| ATGGGGCA | -0.188 |
| AGTATTAA | 0.202 |
| CTCGCAAG | -0.0823 |
| ACATCTAT | 0.17 |
| CTCCAGAA | -0.159 |
| CTCGGGGA | 0.164 |
| AAGACATA | 0.116 |
| AACAAGTC | 0.0915 |
| AGCACCCC | -0.323 |
| GGACATAA | 0.186 |
| AGGCTAAC | -0.0671 |
| CCTCACTC | 0.0324 |
| CGGCGGTC | -0.16 |
| CAACACCC | -0.118 |
| GTGTTGTA | 0.0707 |
| CTCGCCCC | -0.298 |
| ATAATAAG | 0.218 |

| Sequence | PBM E-score |
| --- | --- |
| TAGTAAGA | 0.0323 |
| GTAAAATA | 0.145 |
| AACCGGCT | -0.121 |
| ACGCTGAT | -0.0732 |
| ATAGCTTG | -0.0807 |
| CCACCTTA | -0.132 |
| CAGTGTCC | 0.0229 |
| GTCAGGAA | -0.188 |
| ACGGCGTC | -0.0798 |
| CGTATAAC | 0.129 |
| GCGTCCAC | -0.17 |
| AATTGGTG | 0.183 |
| ATACTGCC | -0.0927 |
| CATTTCCA | 0.00696 |
| GCTTAAAA | 0.0188 |
| AATGAGCG | 0.0517 |
| CGATATCC | 0.0944 |
| GGATCTAC | -0.0964 |
| ATACAAGA | 0.202 |
| CGATGTAA | -0.0497 |
| AACTGACC | -0.184 |
| GGTATGGA | 0.0755 |
| AACAACCA | 0.145 |
| CTCCATCC | -0.19 |
| CATCACGG | 0.0245 |

| Sequence | PBM E-score |
| --- | --- |
| ACGCGTAG | -0.157 |
| GACTAGGC | -0.199 |
| CTAAGCAC | -0.0439 |
| AAGGTGCT | -0.128 |
| CCCAATGA | -0.14 |
| TCGAAAGA | 0.045 |
| CTCCCTTA | -0.0284 |
| CCCATGTC | -0.271 |
| CGGGCCAC | 0.0891 |
| CCATCCTA | -0.118 |
| ATTAACCC | 0.119 |
| ACTAGTGA | -0.0575 |
| TAGAATCA | -0.00809 |
| GGTCGCCA | -0.167 |
| GCTTGGAC | -0.197 |
| AGTAGCGC | 0.061 |
| CTAAATTA | 0.24 |
| GCAGCCGC | -0.0904 |
| AAAACTTG | 0.143 |
| GCCCAAGC | -0.148 |
| CACGGGAC | 0.0082 |
| AATGCGAC | 0.0893 |
